Assay results from the supplement of paper PMC11417369.
The list shows a part of the results.

The sequences below were run on PF3D7_0420300 AP2 domain 1 (GST-tagged) (assay: gcPBM binding intensity (ln(normalized median fluorescence intensity)); higher = stronger DNA binding).
Method in brief: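 An Agilent 4 × 180k array of primer-extended double-stranded 36-bp intergenic genomic probes, with negative controls, was incubated for 1 h with GST-tagged P. falciparum DNA-binding domains expressed in E. coli. Alexa488 anti-GST antibody detected bound protein, scanned at 488 nm. Binding intensity is the highest Masliner-normalised natural-log median intensity across replicate spots of either probe orientation.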

First: ATATTTATCTTTTTATGTACATATGCCCCTTTTCTG [XGTACX_site673]
Second: GAGTTATTTCTTATTTAAGCATTCTACATATATATA [CACACA_negctrl_site239]
The “gcPBM binding intensity (ln)” value of the first is lower: 9.4 for the first, 9.46 for the second.

“AAGAAAATTAAATTAACACACATAAATATATATATA [CACACA_site1664]” and “ATTTTACATATTTGCACACATATATTTAAATACATA [CACACA_site4627]” are the same in “gcPBM binding intensity (ln)” value: 9.65 for the first, 9.65 for the second.

Going from “GTCCTTATGGATGATAAATTATTTTAAATATTCTAT [XGTACX_negctrl_site200]” to “TCTTGGTTATTAAAAAAAAAAAAATATATTTTTCCT [TGCATGCA_negctrl_site445]”, the “gcPBM binding intensity (ln)” value falls from 9.01 to 8.88.

Compared with “TTGCATATTTCTAATTGTACATTATTTTATTTTATA [XGTACX_site8451]”, GGGAAAATAAATAAAGTGCAGATATTAAAAGTTGTA is lower in “gcPBM binding intensity (ln)” value: 9.45 for the first, 9.41 for the second.

Going from “AATAAAAAATATATGAGTACTAAATTGTTTTCTTAA [XGTACX_site8573]” to “CTCAACGATAGAGAAACATGCAAGTATAAGCAACTA [TGCATGCA_site771]”, the “gcPBM binding intensity (ln)” value rises from 9.01 to 9.5.

Compared with “TTTTATTGTTGTTATACACACCATATAAAATATTTC [CACACA_site4983]”, “ATTCACTAAAAAATTGCATGCAATAAATTTTTTTTT [TGCATGCA_site962]” is lower in “gcPBM binding intensity (ln)” value: 9.32 for the first, 8.91 for the second.

Going from “AATTGATTTATATATTGTACATATAAATTTATGTAT [XGTACX_site7785]” to “TTTATTTATTATTAAAGTACTAAATCATATTATTAT [XGTACX_site992]”, the “gcPBM binding intensity (ln)” value falls from 9.27 to 8.9.

Going from “TATTTATATATTATGTGTCCACATGTAAGCTATCTT [XGTACX_site3887]” to “CCACTAATAAATATTACACACATATATATATATATT [CACACA_site3128]”, the “gcPBM binding intensity (ln)” value rises from 9.12 to 9.57.

First: TTTTCTTTTTTCTGTTGTACTAAAAATAATTTTGTA [XGTACX_site5171]
Second: TATACATTATCTTATGCATGCGCATCTGCATATAAA [TGCATGCA_site266]
The “gcPBM binding intensity (ln)” value of the first is higher: 9.12 for the first, 9.05 for the second.

First: AGTATAAATAAATCATAAACATATATATATATATAT [GTGCAC_negctrl_site356]
Second: ATATATACATATAACACACACATATATATATATATA [CACACA_site2575]
The “gcPBM binding intensity (ln)” value of the first is lower: 9.2 for the first, 9.56 for the second.

Going from “CTCATCCTTACATACACACACATATATATATATATA [CACACA_site103]” to “ATATTTAAATCGAAGGTGCGTATTTCCTTTTTTTTT [GTGCAC_site9632]”, the “gcPBM binding intensity (ln)” value falls from 9.82 to 9.4.

First: ATTCATTTCTATTTTACACACAATAAGTAACTTAAT [CACACA_site2850]
Second: AAAAAAATAACAAAATGTATACAATATAACAAAAAT [GTGCAC_negctrl_site512]
The “gcPBM binding intensity (ln)” value of the first is higher: 9.72 for the first, 9.7 for the second.

Compared with “AACATATACCCAGGTACATGCAAATATATATATTAT [TGCATGCA_site878]”, “TTTAAAAATTAATTCTGTACACATTTTTATTTTATT [XGTACX_site8]” is lower in “gcPBM binding intensity (ln)” value: 9.37 for the first, 9.35 for the second.

Going from “TTCTTTCTTCAAAAGTGTACCAAATGTTAGAAAGGT [XGTACX_site4353]” to “ATATATATATATATGTGTACACAACAAAATAAAAAA [XGTACX_site7378]”, the “gcPBM binding intensity (ln)” value rises from 9.21 to 9.56.

Going from “AATGTATATAATATTAATATGTAAATATATAATCAA [CACACA_negctrl_site1683]” to “TGAATAAATATATATACACACCCATATATATATATA [CACACA_site8833]”, the “gcPBM binding intensity (ln)” value rises from 9.31 to 9.36.

Going from “TTAAAAAGTGCGTAGTGTACTAATATAAATAATACA [XGTACX_site2922]” to “TATACCTATAAATACACACACATATATAAATATGTA [CACACA_site6625]”, the “gcPBM binding intensity (ln)” value rises from 9.35 to 9.76.

Going from “TCCTTAAAAATCTAAAAAGAAAAAAACATATATTTT [GTGCAC_negctrl_site123]” to “ATTATTATATATATAACACACATAATTATATACTTA [CACACA_site1563]”, the “gcPBM binding intensity (ln)” value rises from 8.88 to 9.47.

Compared with “AAATAAAAACCATATCGTACAAAAATTTTTGTATTT [XGTACX_site7497]”, “ATATATATATATATATGTACTTAAAAATTTGTTTTG [XGTACX_site1514]” is lower in “gcPBM binding intensity (ln)” value: 9.55 for the first, 8.9 for the second.

Compared with “AAGTCAATTTTTTTTTTTTTTTTTTAACTTATTAAT [TGCATGCA_negctrl_site14]”, “GATCACTGAATAAAGGCACACATCTGACTAATTTTT [CACACA_site66]” is higher in “gcPBM binding intensity (ln)” value: 9.08 for the first, 9.32 for the second.

Compared with “ATATCAACTGAATTGTATAGGCGATAAAAGAAAAAA [CACACA_negctrl_site1334]”, TTTATACATACATTCGTGCACATACGTATAACATAT is higher in “gcPBM binding intensity (ln)” value: 9.19 for the first, 9.36 for the second.

First: AGAATTATAAATTATAGTACATAAAATTTTGATGTA [XGTACX_site5726]
Second: ATATAAATATATGTATGTACACATTTTTTTTTTTTT [XGTACX_site247]
The “gcPBM binding intensity (ln)” value of the first is lower: 9.2 for the first, 9.29 for the second.

Going from “AAACGATCTCGATGTTGTACACATTTATATAGAAAC [XGTACX_site4373]” to “TACTAAAATATATATATGCAACATGAGATATTCAAC [XGTACX_negctrl_site283]”, the “gcPBM binding intensity (ln)” value rises from 9.31 to 9.46.

Compared with “CTAAACTAAACAAACTGTACACAAATAAAACAATAA [XGTACX_site8880]”, “CATGTGTGTATAATTTGTACATATACATAATAAATA [XGTACX_site2418]” is lower in “gcPBM binding intensity (ln)” value: 9.71 for the first, 9.55 for the second.

Compared with “GTTGTCCCCCTTTCTATGCACACTTTAAATTATTCA [CACACA_site52]”, “ATTCTAATAGATAGTAGTACCTATAAGTTTTCTTTT [XGTACX_site2315]” is lower in “gcPBM binding intensity (ln)” value: 9.89 for the first, 9.2 for the second.

First: AATTTATAAGAATATTGTACGTTTAATATATTGTAA [XGTACX_site7553]
Second: AAAATAATAATTAAATAATAGTAAATGAAAAATAAA [CACACA_negctrl_site57]
The “gcPBM binding intensity (ln)” value of the first is lower: 9.15 for the first, 9.36 for the second.

Going from “ATAAATACTAGGCACACACACATATAGATTTATATA [CACACA_site7064]” to “TATGTGTTCAGTATTGCACACACACTCCAAAATAAA [CACACA_site8018]”, the “gcPBM binding intensity (ln)” value falls from 10 to 9.58.

Going from “ACTTCATTTTATAAGTGTACATAATTTGTTTATATA [XGTACX_site5453]” to “TATACAATATATTTTGGTACACAAACAAAAAAATAT [XGTACX_site2522]”, the “gcPBM binding intensity (ln)” value rises from 9.38 to 9.52.

First: ATTAAAAGAACCAAGTGTACATTCTATATATAAAAA [XGTACX_site4260]
Second: GAAAAAGACAAAAGGTGTACAATATGAAATATATAT [XGTACX_site373]
The “gcPBM binding intensity (ln)” value of the first is lower: 9.23 for the first, 9.49 for the second.
